Reference: patent US12583911B2, “Human immunodeficiency virus GP120 binding proteins” (ViiV Healthcare UK (No.5) Limited, priority 2022, dated 2026)

B1: bNAb11: anti-V3 broadly neutralizing antibody; HC with LS SEQ ID NO:278, LC SEQ ID NO:279 (antibody)
heavy: QPQLQESGPGLVEASETLSLTCTVSGDSTGRCNYFWGWVRQPPGKGLEWIGSLSHCRSYYNTDWTYHNPSLKSRLTISLDTPKNQVFLRLTSVTAADTATYYCARFGGEVLVYRDWPKPAWVDLWGRGTLVTVSS[human IgG1 constant region with changes not given here]
light: QSALTQPPSASGSPGQSITISCTGTSNNFVSWYQQYPGKAPKLVIYEVNKRPSGVPDRFSGSKSGSTASLTVSGLQADDEGVYYCSSLVGNWDVIFGGGTKLTVLGQPKAAPSVTLFPPSSEELQANKATLVCLISDFYPGAVTVAWKADSSPVKAGVETTTPSKQSNNKYAASSYLSLTPEQWKSHRSYSCQVTHEGSTVEKTVAPTECS
B2: bNAb15: anti-V3 broadly neutralizing antibody; HC with LS SEQ ID NO:298, LC SEQ ID NO:299 (antibody)
heavy: EVHLEESGPGLVRPSETLSLTCTASGGSIRGGEWGDSDYHWGWVRHSPEKGLEWIGSIHWRGTTHYNAPFRGRGRLSIDLSRNQFSLRLTSVTAEDTAVYYCVKHKYHDIVMVVPIAGWFDPWGQGLQVTVSS[human IgG1 constant region with changes not given here]
light: EIMMTQSPAILSVSPGDRATLSCRASQSVKNNLAWYQKRPGQAPRLLIFDTSSRASGIPARFSGGGSGTEFTLTVNSMQSEDFATYYCQQYEEWPRTFGQGTKVEIKRTVAAPSVFIFPPSDEQLKSGTASVVCLLNNFYPREAKVQWKVDNALQSGNSQESVTEQDSKDSTYSLSSTLTLSKADYEKHKVYACEVTHQGLSSPVTKSFNRGEC
modifications: LS Fc mutation
B3: bNAb13: anti-V3 broadly neutralizing antibody; HC with LS SEQ ID NO:288, LC SEQ ID NO:289 (antibody)
heavy: QVQLQESGPGLVKPSETLSLTCTVSGDSINTGHHYWGWVRQVPGKGPEWIAHIHYNTAVLHNPALKSRVTISIFTLKNLITLSLSNVTAADTAVYFCVRSGGDILYYIEWQKPHWFYPWGPGILVTVSS[human IgG1 constant region with changes not given here]
light: QSALTQPPSASGSLGQSLTISCSGTGSDIGSWNFVSWYQQFPGRAPNLIIFEVNRRRSGVPDRFSGSKSGNTASLTVSGLRSEDEAEYFCSSLSGRWDIVFGGGTKVTVLGQPKAAPSVTLFPPSSEELQANKATLVCLISDFYPGAVTVAWKADSSPVKAGVETTTPSKQSNNKYAASSYLSLTPEQWKSHRSYSCQVTHEGSTVEKTVAPTECS
modifications: LS Fc mutation
B4: bNAb3: anti-V3 broadly neutralizing antibody; HC with LS SEQ ID NO:73, LC SEQ ID NO:74 (antibody)
heavy: QVQLRESGPGLVKPSETLSLSCTVSNDSRPSDHSWTWVRQSPGKALEWIGDIHYNGATTYNPSLRSRVRIELDQSIPRFSLKMTSMTAADTGMYYCARNAIRIYGVVALGEWFHYGMDVWGQGTAVTVSSASTKGPSVFPLAPSSKSTSGGTAALGCLVKDYFPEPVTVSWNSGALTSGVHTFPAVLQSSGLYSLSSVVTVPSSSLGTQTYICNVNHKPSNTKVDKRV[human IgG1 Fc with changes not given here]
light: SSELTQPPSVSVSPGQTARITCSGAPLTSRFTYWYRQKPGQAPVLIISRSSQRSSGWSGRFSASWSGTTVTLTIRGVQADDEADYYCQSSDTSDSYKMFGGGTKLTVLGQPAAAPSVTLFPPSSEELQANKATLVCLISDFYPGAVTVAWKADSSPVKAGVETTTPSKQSNNKYAASSYLSLTPEQWKSHKSYSCQVTHEGSTVEKTVAPTEC
modifications: LS Fc mutation
B5: bNAb16: anti-V3 broadly neutralizing antibody; HC with LS SEQ ID NO:303, LC SEQ ID NO:304 (antibody)
heavy: EVQLVESGGGLVKPGGSLRLTCVASGFTFSDVWLNWVRQAPGKGLEWVGRIKSRTDGGTTDYAASVKGRFTISRDDSKNTLYLQMNSLKTEDTAVYSCTTDGFIMIRGVSEDYYYYYMDVWGKGTTVTVSS[human IgG1 constant region with changes not given here]
light: QSVLTQPPSVSAAPGQKVTISCSGSSSNIGNNYVLWYQQFPGTAPKLLIYGNNKRPSGIPDRFSGSKSGTSATLGITGLQTGDEADYFCATWDSGLSADWVFGGGTKLTVLGQPKAAPSVTLFPPSSEELQANKATLVCLISDFYPGAVTVAWKADSSPVKAGVETTTPSKQSNNKYAASSYLSLTPEQWKSHRSYSCQVTHEGSTVEKTVAPTECS
modifications: LS Fc mutation
B6: bNAb12: anti-V3 broadly neutralizing antibody; HC with LS SEQ ID NO:283, LC SEQ ID NO:284 (antibody)
heavy: QVQLQESGPGLVKPAETLSLTCSVSGESINTGHYYWGWVRQVPGKGLEWIGHIHYTTAVLHNPSLKSRLTIKIYTLRNQITLRLSNVTAADTAVYHCVRSGGDILYYYEWQKPHWFSPWGPGIHVTVSS[human IgG1 constant region with changes not given here]
light: QSALTQPPSASGSLGQSVTISCNGTSSDIGGWNFVSWYQQFPGRAPRLIIFEVNKRPSGVPGRFSGSKSGNSASLTVSGLQSDDEGQYFCSSLFGRWDVVFGGGTKLTVLGQPKAAPSVTLFPPSSEELQANKATLVCLISDFYPGAVTVAWKADSSPVKAGVETTTPSKQSNNKYAASSYLSLTPEQWKSHRSYSCQVTHEGSTVEKTVAPTECS
modifications: LS Fc mutation

Tested on: panel of HIV-1 envelopes (pseudotyped HIV-1 virus)
Assay: PSV assay (ACTOne cells), HIV-1 envelopes
Type: cell-based
Procedure: The anti-viral activity of the antigen binding proteins was measured in a pseudotyped virus (PSV) assay.
PSV was produced in HEK-293T cells (ATCC, Manassas VA) by co-transfecting expression plasmids encoding the HIV-1 gp160 envelope gene and an HIV-1 backbone plasmid using TRANSIT-2020 transfection reagent (Mirus Bio, Madison WI). A panel of HIV-1 PSVs expressing different gp160 envelope trimers was generated to evaluate the effectiveness of the antigen binding proteins of the invention against a wide spectrum of HIV-1 strains.
The genome of PSV used in this assay contains a luciferase gene that is expressed once the virus enters cells. Accordingly, the luminescence signal (after adding a substrate of luciferase) can be used to determine the level of viral infection.
The 50% tissue culture infectious dose (TCID) of a single thawed aliquot of each batch of PSV was determined in ACTOne cells. The ACTOne cell-line used in this assay was derived in-house from a genetically engineered 293T cell clone that expresses CD4, CXCR4, and CCR5. Cells were maintained in growth medium composed of Dulbecco's modified Eagle's medium (DMEM, Life Technologies) at 37° C. in a humidified 5% CO2-95% air environment. Cell monolayers were split by treatment with Trypsin-EDTA (0.05%).
To run the anti-viral assay, ACTOne cells were detached by treating the cell culture flask with trypsin (trypsinization) and resuspended in growth medium containing 2% of DMSO to a density of 2.5×10^5 cells/ml. One hundred μl of such cells was added to 10 μl of antigen binding protein pre-loaded in a 96-well plate. Ninety μl of PSV was then added to each well. The assay plates were incubated at 37° C. in a humidified incubator at 5% CO2 level. Plates were developed after 72 hours of incubation by adding 50 μl of BRIGHTGLO luciferase reagent (Promega, Madison WI) to each well, and transferring the plates to an ENVISION multilabel plate reader (PerkinElmer, Waltham MA) to measure the luminescence and determine the level of virus that had infected the cells. The higher the luminescence signal, the higher the level of infection.

[1] = envelope 0260.v5.c36, PSV assay
[2] = envelope 3468_V1_C12, PSV assay
[3] = envelope 6471_V1_C16, PSV assay

| Molecule | IC50 (envelope 93UG065, PSV assay) [nM] | IC50 [1] [nM] | IC50 (envelope 928_28, PSV assay) [nM] | IC50 (envelope 3326_V4_C3, PSV assay) [nM] | IC50 [2] [nM] | IC50 (envelope 3637_V5_C3, PSV assay) [nM] | IC50 [3] [nM] | IC50 (envelope 42368, PSV assay) [nM] | IC50 (envelope 620345_C1, PSV assay) [nM] | IC50 (envelope Q461_E2, PSV assay) [nM] | IC50 (envelope TH976_17, PSV assay) [nM] | IC50 (envelope X2088.C9, PSV assay) [nM] | IC50 (envelope YU-2, PSV assay) [nM] | IC50 (envelope ZM106.9, PSV assay) [nM] | IC50 (envelope 3326_V4_C3) [nM] | IC50 (envelope 3468_V1_C12) [nM] | IC50 (envelope 3637_V5_C3) [nM] | IC50 (envelope 42368) [nM] | IC50 (envelope Q461_E2) [nM] | IC50 (envelope X2088.C9) [nM] | other results |
| --- | --- | --- | --- | --- | --- | --- | --- | --- | --- | --- | --- | --- | --- | --- | --- | --- | --- | --- | --- | --- | --- |
| B1 | 89.5 | 0.57 | > 500 | > 500 | > 500 | > 500 | 253 | > 500 | 438 | > 500 | > 500 | 95.1 | 0.76 | 73.7 |  |  |  |  |  |  |  |
| B2 |  |  |  |  |  |  |  |  |  |  |  |  |  |  | > 500 | > 500 | 5 | > 500 | > 500 | 2.58 | IC50 (envelope ZM106.9): 1.34 nM |
| B3 | 46.4 | 18.1 | 201 | > 500 | > 500 | > 500 | 133 | > 500 | > 500 | > 500 | > 500 | > 500 | 48.3 | 22.4 |  |  |  |  |  |  |  |
| B4 |  |  |  |  |  |  |  | > 500 |  |  |  | 0.03 |  | 0.03 |  |  |  |  |  |  | IC50 (envelope CAP45.2.00.G3, PSV assay): > 500 nM; IC50 (envelope CC1/85, PSV assay): 38.3 nM; IC50 (envelope NL4-3, PSV assay): 0.15 nM |
| B5 |  |  |  |  |  |  |  |  |  |  |  |  |  |  | > 500 | > 500 | > 500 | > 500 | > 500 | 289 | IC50 (envelope ZM106.9): > 500 nM |
| B6 | 3.17 | 5.19 | 482 | > 500 | 344 | > 500 | > 500 | 344 | 179 | 41.9 | > 500 | > 500 | 77.4 | 1.85 |  |  |  |  |  |  |  |
